B1: TPR 5TU (parent)
chain: GGAUCUUCUCGAUCUAACAAAAAAGACAAAUCUGCCACAAAGCUUGAGAGCAUCUUCGGAUGCAGAGGCGGCAGCCUUCGGUGGCGCGAUAGCGCCAACGUUCUCAACUAUGACACGCAAAACGCGUGCUCCGUUGAAUGGAGUUUAUCAUG

This sample is rich in variants without activity. Where only a bound is given, the exact number is not on record here.

The variants in this series derive from B1. Briefly: polymerase ribozyme fitness, log enrichment relative to wild type (log ratio); higher = more active; in vitro selection for triplet polymerase activity. Summed up:
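In triplicate, a single round of in vitro selection was run on each mutant library, PCR-built and transcribed, covering one subunit of a heterodimeric triplet polymerase ribozyme. Frozen incubation at −7 °C followed annealing with a biotinylated primer, partner subunit and triplets, and extended constructs were then gel-excised, streptavidin-captured and taken through RT-PCR. Fitness is the logarithm of genotype enrichment over wild-type enrichment, from inverse-variance-weighted replicate averages of Illumina-sequenced inputs and outputs. […] only genotypes with ≥10 input reads and ≥1 read per output were kept.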
Turning to C85G C108G G112U, the “polymerase ribozyme fitness (log ratio)” value was at most -4.2.

Turning to G84U G136A G141C, the “polymerase ribozyme fitness (log ratio)” value was -1.29.

Regarding G84A A89U C103A C105U U148G, the “polymerase ribozyme fitness (log ratio)” value is at most -4.2.

Turning to C85G A91U, the “polymerase ribozyme fitness (log ratio)” value was at most -4.2.

Regarding G84A C85A A91G U109G C125G, the “polymerase ribozyme fitness (log ratio)” value is at most -4.2.

Regarding C85G C108A, the “polymerase ribozyme fitness (log ratio)” value is at most -4.2.

Take G83U G94U C95A: the “polymerase ribozyme fitness (log ratio)” value is -1.62.

As for C85G G86A, the “polymerase ribozyme fitness (log ratio)” value was -3.83.

For the variant G84A C95G G141C, the “polymerase ribozyme fitness (log ratio)” value is -0.311.

Turning to C85A C96A, the “polymerase ribozyme fitness (log ratio)” value is -2.22.

In the case of G84A U90G C96G, the “polymerase ribozyme fitness (log ratio)” value was at most -4.2.

As to C85G A106G A119G C131A U151A G152U, the “polymerase ribozyme fitness (log ratio)” value was at most -4.2.

With C85A C87U A119U, the “polymerase ribozyme fitness (log ratio)” value is at most -4.2.

Turning to G83U G128U, the “polymerase ribozyme fitness (log ratio)” value was -3.22.

With C85A U127A, the “polymerase ribozyme fitness (log ratio)” value was -3.68.

Regarding G84A G136A, the “polymerase ribozyme fitness (log ratio)” value was -0.313.

On to C85G C131U A138U U148A, for which the “polymerase ribozyme fitness (log ratio)” value was at most -4.2.

On to C85U A107U U145A A150U, for which the “polymerase ribozyme fitness (log ratio)” value is at most -4.2.

With G84U A89U U104G U127A, the “polymerase ribozyme fitness (log ratio)” value is at most -4.2.

Turning to G83U A115C, the “polymerase ribozyme fitness (log ratio)” value was -0.337.

As for G84A U102A, the “polymerase ribozyme fitness (log ratio)” value was -1.01.

Consider G83U U90G C99A A107U U148A, for which the “polymerase ribozyme fitness (log ratio)” value is at most -4.2.

Take G83A G141U: the “polymerase ribozyme fitness (log ratio)” value was -0.659.

Turning to G84U G117U C123U G141A U146A, the “polymerase ribozyme fitness (log ratio)” value was at most -4.2.

For G84U C103A A122C G140A, the “polymerase ribozyme fitness (log ratio)” value is at most -4.2.

On to G83C A115U A120U, for which the “polymerase ribozyme fitness (log ratio)” value is -1.99.

Take G84A U101A A115U A121G G124A: the “polymerase ribozyme fitness (log ratio)” value was at most -4.2.

As to G84U A142G, the “polymerase ribozyme fitness (log ratio)” value is -3.27.

On to G83A U102C C103G U145G, for which the “polymerase ribozyme fitness (log ratio)” value was at most -4.2.

For the variant C85U A89U A119C, the “polymerase ribozyme fitness (log ratio)” value was -0.895.

On to G83A U146G, for which the “polymerase ribozyme fitness (log ratio)” value was -1.33.

As to C85A A115G U148A, the “polymerase ribozyme fitness (log ratio)” value was at most -4.2.

With G83C A91U C96A, the “polymerase ribozyme fitness (log ratio)” value is at most -4.2.

Turning to C85G C93U C116U U127G, the “polymerase ribozyme fitness (log ratio)” value is at most -4.2.

Turning to C85A U148C, the “polymerase ribozyme fitness (log ratio)” value is -2.22.

Consider C85G G128C U146C, for which the “polymerase ribozyme fitness (log ratio)” value is at most -4.2.

For the variant C85G C96U, the “polymerase ribozyme fitness (log ratio)” value was -2.26.

Consider G83A G86U C118U, for which the “polymerase ribozyme fitness (log ratio)” value is -3.81.

As to G83U A98C A115G, the “polymerase ribozyme fitness (log ratio)” value was -1.62.

Turning to G84A C118A U146C, the “polymerase ribozyme fitness (log ratio)” value is -1.34.

Consider C85G U102G U109G G112A, for which the “polymerase ribozyme fitness (log ratio)” value was at most -4.2.

G83U U102C: the “polymerase ribozyme fitness (log ratio)” value was -1.16.

Consider C85G G133C U139A, for which the “polymerase ribozyme fitness (log ratio)” value was at most -4.2.

Turning to C85A G126A, the “polymerase ribozyme fitness (log ratio)” value is -1.32.

Turning to C85G U144A A150U, the “polymerase ribozyme fitness (log ratio)” value was -3.7.

Regarding G84A U127C U139G A142C, the “polymerase ribozyme fitness (log ratio)” value is -3.93.

As to C85A U144G, the “polymerase ribozyme fitness (log ratio)” value was -0.777.

As for C85A C87A U148C, the “polymerase ribozyme fitness (log ratio)” value is at most -4.2.

In the case of G84U U104G C125A, the “polymerase ribozyme fitness (log ratio)” value is -3.09.

For the variant C85U A91U C95G G140U, the “polymerase ribozyme fitness (log ratio)” value was at most -4.2.

Regarding G84A G117U U139G U145C, the “polymerase ribozyme fitness (log ratio)” value is -0.527.

As for C85A G88C U146G, the “polymerase ribozyme fitness (log ratio)” value was at most -4.2.

Take G83C C93U: the “polymerase ribozyme fitness (log ratio)” value is -2.49.

In the case of G84A A97G C129A G152A, the “polymerase ribozyme fitness (log ratio)” value was -4.

With G84C G117C, the “polymerase ribozyme fitness (log ratio)” value is -1.73.

With C85G C125U, the “polymerase ribozyme fitness (log ratio)” value was -3.35.

As for C85A A137G, the “polymerase ribozyme fitness (log ratio)” value was -2.96.

Consider G84A A91U G126U G143U, for which the “polymerase ribozyme fitness (log ratio)” value was at most -4.2.

Turning to G84C G92C A106U C149U, the “polymerase ribozyme fitness (log ratio)” value is at most -4.2.

On to G84C A115G, for which the “polymerase ribozyme fitness (log ratio)” value was -2.49.

With G84U C103U A137C, the “polymerase ribozyme fitness (log ratio)” value is at most -4.2.

As to C85A G140A, the “polymerase ribozyme fitness (log ratio)” value was -4.18.

On to C85G U90A C114A, for which the “polymerase ribozyme fitness (log ratio)” value was at most -4.2.

For G83C C116U A120C U135G, the “polymerase ribozyme fitness (log ratio)” value was -3.87.

As to G84U U144A, the “polymerase ribozyme fitness (log ratio)” value was -3.22.

As to C85A G133U, the “polymerase ribozyme fitness (log ratio)” value is at most -4.2.

G84A U144A U146C U148C: the “polymerase ribozyme fitness (log ratio)” value was at most -4.2.

As for G84A C96A A119U, the “polymerase ribozyme fitness (log ratio)” value is -1.11.

For G84U U101G G126C, the “polymerase ribozyme fitness (log ratio)” value was -1.67.

As for G84C C116A A119G U144C, the “polymerase ribozyme fitness (log ratio)” value is at most -4.2.

For the variant C85A G92C G141A G143U, the “polymerase ribozyme fitness (log ratio)” value is at most -4.2.

As to G83U C132U, the “polymerase ribozyme fitness (log ratio)” value was -1.33.

G84U G140U: the “polymerase ribozyme fitness (log ratio)” value is at most -4.2.

With C85A A91G G94A A120U G143U, the “polymerase ribozyme fitness (log ratio)” value was at most -4.2.

Turning to G83U G94C C149A, the “polymerase ribozyme fitness (log ratio)” value is at most -4.2.

Consider G84A A97G, for which the “polymerase ribozyme fitness (log ratio)” value is -2.34.

As for C85G C118A U146C, the “polymerase ribozyme fitness (log ratio)” value is -2.72.

Turning to G84A U134C, the “polymerase ribozyme fitness (log ratio)” value is -0.573.

In the case of G84A U134G, the “polymerase ribozyme fitness (log ratio)” value was -2.31.

On to C85A C114U G143A, for which the “polymerase ribozyme fitness (log ratio)” value was at most -4.2.

G84U A120G: the “polymerase ribozyme fitness (log ratio)” value was -2.16.

In the case of G84A C108A, the “polymerase ribozyme fitness (log ratio)” value was at most -4.2.

As for G84U G92C A110C, the “polymerase ribozyme fitness (log ratio)” value was at most -4.2.

The values are drawn from the RNAGym collection of RNA variant scans (doi:10.1073/pnas.2313332121).
